Here are results for 20 molecules from publication PMC9911399, “Two distinct binding modes provide the RNA-binding protein RbFox with extraordinary sequence specificity”.

Numbering of substitutions follows the chain as printed; changes in the protein carry UniProt numbers. This is one part of the list.

T1: RBFOX1 RRM (Homo sapiens, UniProt Q9NWB1 109-208)
T1 sequence: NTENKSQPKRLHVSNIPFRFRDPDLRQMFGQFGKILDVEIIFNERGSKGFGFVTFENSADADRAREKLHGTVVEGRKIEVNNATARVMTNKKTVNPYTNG

B1: GUGAAAU (DNA:RNA)
RNA: GGGAGACCGGAAUUCAGAUUGUCCGUGAAAUUUAAAUCCCGUCGUAGCCACCA
DNA 1: CAATCTGAATTCCGGTCTCCC
DNA 2: TGGTGGCTACGACGGGATT
B2: AAGCCCU (DNA:RNA)
RNA: B1 RNA with G25A, U26A, A28C, A29C, A30C
DNA 1: CAATCTGAATTCCGGTCTCCC
DNA 2: TGGTGGCTACGACGGGATT
B3: UCGGGAG (DNA:RNA)
RNA: B1 RNA with G25U, U26C, A28G, A29G, U31G
DNA 1: CAATCTGAATTCCGGTCTCCC
DNA 2: TGGTGGCTACGACGGGATT
B4: GUGUAAA (DNA:RNA)
RNA: B1 RNA with A28U, U31A
DNA 1: CAATCTGAATTCCGGTCTCCC
DNA 2: TGGTGGCTACGACGGGATT
B5: UAAGUCA (DNA:RNA)
RNA: GGGAGACCGGAAUUCAGAUUGUCCUAAGUCAUUAAAUCCCGUCGUAGCCACCA
DNA 1: CAATCTGAATTCCGGTCTCCC
DNA 2: TGGTGGCTACGACGGGATT
B6: GAUUUAA (DNA:RNA)
RNA: B5 RNA with U25G, A27U, G28U, C30A
DNA 1: CAATCTGAATTCCGGTCTCCC
DNA 2: TGGTGGCTACGACGGGATT
B7: GUACAUG (DNA:RNA)
RNA: B1 RNA with G27A, A28C, A30U, U31G
DNA 1: CAATCTGAATTCCGGTCTCCC
DNA 2: TGGTGGCTACGACGGGATT
B8: CCCUCUU (DNA:RNA)
RNA: B1 RNA with G25C, U26C, G27C, A28U, A29C, A30U
DNA 1: CAATCTGAATTCCGGTCTCCC
DNA 2: TGGTGGCTACGACGGGATT
B9: AAUGAUC (DNA:RNA)
RNA: B5 RNA with U25A, A27U, U29A, C30U, A31C
DNA 1: CAATCTGAATTCCGGTCTCCC
DNA 2: TGGTGGCTACGACGGGATT
B10: UUUACCC (DNA:RNA)
RNA: B1 RNA with G25U, G27U, A29C, A30C, U31C
DNA 1: CAATCTGAATTCCGGTCTCCC
DNA 2: TGGTGGCTACGACGGGATT
B11: CUUGCCA (DNA:RNA)
RNA: B5 RNA with U25C, A26U, A27U, U29C
DNA 1: CAATCTGAATTCCGGTCTCCC
DNA 2: TGGTGGCTACGACGGGATT
B12: GAACGGU (DNA:RNA)
RNA: B1 RNA with U26A, G27A, A28C, A29G, A30G
DNA 1: CAATCTGAATTCCGGTCTCCC
DNA 2: TGGTGGCTACGACGGGATT
B13: ACAGCAU (DNA:RNA)
RNA: B1 RNA with G25A, U26C, G27A, A28G, A29C
DNA 1: CAATCTGAATTCCGGTCTCCC
DNA 2: TGGTGGCTACGACGGGATT
B14: GCCAAGU (DNA:RNA)
RNA: B1 RNA with U26C, G27C, A30G
DNA 1: CAATCTGAATTCCGGTCTCCC
DNA 2: TGGTGGCTACGACGGGATT
B15: UCACCUA (DNA:RNA)
RNA: B5 RNA with A26C, G28C, U29C, C30U
DNA 1: CAATCTGAATTCCGGTCTCCC
DNA 2: TGGTGGCTACGACGGGATT
B16: AUAAUAA (DNA:RNA)
RNA: B1 RNA with G25A, G27A, A29U, U31A
DNA 1: CAATCTGAATTCCGGTCTCCC
DNA 2: TGGTGGCTACGACGGGATT
B17: UAAAGAC (DNA:RNA)
RNA: B5 RNA with G28A, U29G, C30A, A31C
DNA 1: CAATCTGAATTCCGGTCTCCC
DNA 2: TGGTGGCTACGACGGGATT
B18: AUUCAUA (DNA:RNA)
RNA: B1 RNA with G25A, G27U, A28C, A30U, U31A
DNA 1: CAATCTGAATTCCGGTCTCCC
DNA 2: TGGTGGCTACGACGGGATT
B19: GUAUCUC (DNA:RNA)
RNA: B1 RNA with G27A, A28U, A29C, A30U, U31C
DNA 1: CAATCTGAATTCCGGTCTCCC
DNA 2: TGGTGGCTACGACGGGATT
B20: CUAUCGA (DNA:RNA)
RNA: B5 RNA with U25C, A26U, G28U, U29C, C30G
DNA 1: CAATCTGAATTCCGGTCTCCC
DNA 2: TGGTGGCTACGACGGGATT

The target in this assay is T1, RBFOX1 RRM. Briefly: EMSA; HiTS-Eq, 1 nM pool, 10 min; buffer printed only for the single-RNA assays: 10 mM Tris pH 7.5, 150 mM NaCl, 3.4 mM EDTA, 0.001% NP-40, 30 C. To be noted: tags: His6 N-terminal (pET28a); label: 5' 32P. The procedure, abridged: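 Purified wild-type or mutant RbFox RRM at increasing concentrations was equilibrated with 1 nM of 5′-radiolabelled RNA carrying 7 randomized nucleotides for 10 min in 50 µL. Unbound RNA was separated by 8% native PAGE and sequenced. Relative association constants came from read-count changes of each RNA species compared with the control reaction, normalised to the cognate motif.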
As for B1, the binding signal was 0.0107 KA relative to UGCAUGU.

For the molecule B2, the binding signal was 0.00417 KA relative to UGCAUGU.

B3: the binding signal was 0.00935 KA relative to UGCAUGU.

In the case of B4, the binding signal is 0.00728 KA relative to UGCAUGU.

Consider B5, for which the binding signal was 0.00456 KA relative to UGCAUGU.

Turning to B6, the binding signal is 0.00575 KA relative to UGCAUGU.

In the case of B7, the binding signal is 0.00882 KA relative to UGCAUGU.

As to B8, the binding signal is 0.00358 KA relative to UGCAUGU.

Take B9: the binding signal is 0.00553 KA relative to UGCAUGU.

Turning to B10, the binding signal is 0.00298 KA relative to UGCAUGU.

For B11, the binding signal is 0.0089 KA relative to UGCAUGU.

On to B12, for which the binding signal was 0.0147 KA relative to UGCAUGU.

B13: the binding signal is 0.00434 KA relative to UGCAUGU.

Regarding B14, the binding signal was 0.00868 KA relative to UGCAUGU.

Take B15: the binding signal is 0.00184 KA relative to UGCAUGU.

Turning to B16, the binding signal is 0.00235 KA relative to UGCAUGU.

Turning to B17, the binding signal is 0.00563 KA relative to UGCAUGU.

As for B18, the binding signal is 0.00174 KA relative to UGCAUGU.

With B19, the binding signal was 0.0129 KA relative to UGCAUGU.

Consider B20, for which the binding signal is 0.0115 KA relative to UGCAUGU.
